Reference: US11780935B2, “Mutant antibodies and conjugation thereof” (Pfizer Healthcare Ireland, priority 2012, dated 2023)

Experiment: Reactivity of VH-K^99 of h38C2-IgG1 with CATC-1, reversed phase chromatography
Format: biochemical
Conditions: h38C2-IgG1 after conjugation with Biotin-PFP; reacted with CATC-1
Method: The antibody h38C2-IgG1 was adjusted to 20 mg/mL with HEPES buffer pH 7.5 to a final concentration of 0.02 M. Biotin-PFP was reconstituted in water to 10 mg/mL and added to h38C2-IgG1 at a molar ratio of 5:1 and allowed to react at room temperature for 2 hrs. The unreacted PFP-Biotin was removed by size exclusion chromatography and buffer exchanged into a histidine, glycine, and sucrose buffer pH 6.5. […] Conjugation of h38C2-IgG1 occurs at a distribution between 0-3 CA with an average of 1.1 conjugations. Increased conjugation would be possible following optimization of the reaction conditions. The reactivity of VH-K^99 (K^93 according to Kabat numbering) on h38C2-IgG1 was confirmed to be >95% when reacted with the catalytic antibody test compound CATC-1, and analyzed via reversed phase chromatography.

B1: h38C2-IgG1: humanized aldolase catalytic antibody (SEQ ID NO:64 and 65); in b522 conjugated with Biotin-PFP (protein)
light: ELQMTQSPSSLSASVGDRVTITCRSSQSLLHTYGSPYLNWYLQKPGQSPKLLIYKVSNRFSGVPSRFSGSGSGTDFTLTISSLQPEDFAVYFCSQGTHLPYTFGGGTKVEIKRTVAAPSVFIFPPSDEQLKSGTASVVCLLNNFYPREAKVQWKVDNALQSGNSQESVTEQDSKDSTYSLSSTLTLSKADYEKHKVYACEVTHQGLSSPVTKSFNRGEC
heavy: EVQLVESGGGLVQPGGSLRLSCAASGFTFSNYWMSWVRQSPEKGLEWVSEIRLRSDNYATHYAESVKGRFTISRDNSKNTLYLQMNSLRAEDTGIYYCKTYFYSFSYWGQGTLVTVSSASTKGPSVFPLAPSSKSTSGGTAALGCLVKDYFPEPVTVSWNSGALTSGVHTFPAVLQSSGLYSLSSVVTVPSSSLGTQTYICNVNHKPSNTKVDKRV[human IgG1 Fc cut from this listing]
modifications: biotin-PFP conjugate; Synthetic mAb
For B1, the “reactivity of VH-K^99 (K^93 according to Kabat numbering)” value was greater than 95%.
